The campaign covered roughly 55,000 compounds. About 530 (0.96%) were called active. The shares of active, inactive and inconclusive entries below differ from those in the screen. Calls follow the shape of the dose curve; as a rule, active = well fitted cell-killing curve with a large enough effect; inconclusive = small, poorly fitted or top-dose-only effect; inactive = no such curve, though single readings can be large or run the other way. Where the call is inconclusive, the potency comes from a doubtful curve fit.
Assay: qHTS Screen for Compounds that Selectively Target Cancer Cells with p53 Mutations: Cytotoxicity of p53 Null Cells at the Nonpermissive Temperature; also: nearly all actives have a fitted effect of over 50% in size;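 as to activity, negative = cell killing: 0% = DMSO only and -100% = full killing by 100 µM tamoxifen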
Conditions: H1299 p53-null (neo) cells, 39C, ATPlite viability, 24 h; activity, negative = cell killing: at 46.1 µM (top of the series)
Method in brief: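 H1299 lung cancer cells, p53-null (H1299-neo) or expressing p53 A138V (H1299-p53A138V), were plated overnight at 37C, then exposed to compounds at up to 46 uM for 24 hr at 39C. Viability was read by ATP-based luminescence.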
In the case of `COc1ccc(Cl)cc1NC(=O)NCC1CCN(Cc2ccccc2F)CC1`, the Potency is reported as inconclusive: 10 µM [cytotoxic, partial curve]. With `NS(=O)(=O)c1ccc2nc(NC(=O)COc3ccccc3)sc2c1` the Potency was inconclusive: 0.01 µM [cytotoxic, full curve, poor fit]. For `Cc1ccc(C)c(N2CCN(CCCNC(=O)c3nnc(Cc4ccc(F)cc4Cl)o3)CC2)c1`, the Potency was inconclusive: 31.6 µM [cytotoxic, single point]. With `CCn1cc2nc(SCc3ccc(F)cc3)n(Cc3ccc(Cl)cc3)c(=O)c2n1` the activity, negative = cell killing was inconclusive: -32% [cytotoxic]. For `COC(=O)C1CCN(C(c2ccccc2)c2sc3nc(-c4ccco4)nn3c2O)CC1` (stereo not given), the Potency was “inactive”. In the case of `COc1ccc(NC(=O)Nc2ccccc2OCc2cc(=O)n3ccccc3n2)c(OC)c1`, the Potency is reported as inconclusive: 31.6 µM [cytotoxic, single point]. With `O=C(NCc1ccccc1)c1ccc2c(c1)nc1n2CCCCC1` the Potency was inconclusive: 11.2 µM [cytotoxic, partial curve]. With `COc1cccc(C2=CC(c3ccccc3F)n3c(nc4ccccc43)N2)c1` (stereo not given) the Potency was inconclusive: 35.5 µM [cytotoxic, single point]. With `Cc1ccc(CCNC(=O)c2ccc(NC(=O)N3CCSc4ccccc43)cc2)cc1` the Potency was inconclusive: 31.6 µM [cytotoxic, single point]. For `Cc1ccc(C)c(N2CCN(CCCNC(=O)Nc3ccc(Cl)cc3)CC2)c1`, the Potency was active: 5.01 µM. With `COc1ccccc1N1CCN(CC(O)COc2ccc(C)cc2C(C)(C)C)CC1` (stereo not given) the Potency was inconclusive: 35.5 µM [cytotoxic, single point]. With `CCc1nn(CC(=O)N2CCN(c3cccc(C(F)(F)F)c3)CC2)c(=O)c2cccn12` the Potency was inconclusive: 22.4 µM [cytotoxic, single point]. With `Cn1nnnc1SCCCNCc1cccc(OCc2ccccc2Cl)c1` the Potency was “inactive”. For `O=C(C1CCN(Cc2ccc(OCc3ccccc3)cc2)CC1)N1CCCC1`, the Potency was inconclusive: 25.1 µM [cytotoxic, partial curve]. In the case of `CCn1cc(C(=O)NCc2ccc(C)cc2)c(=O)c2cc(S(=O)(=O)N3CCc4ccccc4C3)ccc21`, the Potency is reported as inconclusive: 3.16 µM [cytotoxic, single point]. For `CN1CCN(CCCNC(=O)c2ccc3nc(Cc4ccccc4)oc3c2)CC1`, the Potency was inconclusive: 0.199 µM [cytotoxic, full curve]. For `COc1ccc(S(=O)(=O)Nc2cc3c(cc2NCc2ccccc2)n(C)c(=O)n3C)cc1`, the Potency was inconclusive: 15.8 µM [cytotoxic, partial curve]. In the case of `COc1ccc2c(c1)NC(c1cccnc1)=NC(c1ccc(F)cc1)=N2`, the Potency is reported as inconclusive: 1.26 µM [cytotoxic, full curve, poor fit]. For `O=C(Nc1cccc(F)c1)c1ccc(-c2ccccc2)s1`, the Potency was inconclusive: 10 µM [cytotoxic, partial curve]. In the case of `CCOc1cc(CNC(=O)Cn2c(-c3cccs3)cc3cc(F)ccc32)ccc1OC`, the Potency is reported as “inactive”. With `COc1cccc(C(=O)Nc2ccccc2-c2nnc(-c3cccc(OC)c3)o2)c1` the Potency was inconclusive: 0.501 µM [cytotoxic, full curve, poor fit]. With `O=C(Cn1c(=O)oc2cc(S(=O)(=O)NCc3ccccc3)ccc21)NCc1ccc(Cl)cc1` the Potency was “inactive”. For `CCOc1ccc(/C=C/c2nc(C#N)c(NCCc3ccccc3)o2)cc1`, the Potency was inconclusive: 2.51 µM [cytotoxic, partial curve]. In the case of `Cc1ccc(NC(=O)C2=CC(c3ccc4c(c3)OCO4)=NS(=O)(=O)N2C)cc1`, the Potency is reported as inconclusive: 0.02 µM [cytotoxic, full curve, poor fit]. For `COc1ccc(Nc2c(-c3ccccn3)nc3ccc(Cl)cn23)cc1`, the Potency was inconclusive: 6.31 µM [cytotoxic, full curve]. With `CCn1c(=O)cc(OCC(=O)N2CCN(c3ccc(F)cc3)CC2)c2ccccc21` the Potency was inconclusive: 20 µM [cytotoxic, single point]. For `Cn1c(=O)n(CCCc2ccccc2)c(=O)c2c1nc1n2CCN1c1ccc(F)cc1`, the Potency was inconclusive: 0.0251 µM [cytotoxic, full curve]. With `COc1cc2ccccc2cc1C(=O)N1CCN(c2nc3ccc(F)cc3s2)CC1` the Potency was “inactive”. In the case of `CCc1ccc(CNCc2c(C(=O)O)n(Cc3ccc(F)cc3Cl)c3cc(OC)ccc23)cc1`, the Potency is reported as inconclusive: 12.6 µM [cytotoxic, partial curve]. For `O=C(c1ccc(CSc2nc3ccncc3n2Cc2ccccc2)cc1)N1CCCCCC1`, the Potency was inconclusive: 0.005 µM [cytotoxic, full curve, poor fit]. In the case of `COc1ccccc1NC(=O)C1=C(C)Nc2nc(SCc3ccccc3F)nn2C1c1cccs1` (stereo not given), the Potency is reported as inconclusive: 12.6 µM [cytotoxic, single point]. In the case of `COc1ccc(N2CCN(C(=O)c3cccc(NC(=O)c4nsc5ccccc45)c3)CC2)cc1`, the Potency is reported as inconclusive: 14.1 µM [cytotoxic, partial curve, poor fit]. In the case of `CCn1ccc2c(OCC(=O)Nc3ccccc3C)cccc2c1=O`, the Potency is reported as “inactive”. For `COc1cc(NC(=O)c2cc(C)nc3c2c(C)nn3-c2ccccc2Cl)cc(OC)c1`, the Potency was inconclusive: 0.0035 µM [cytotoxic, full curve, poor fit]. For `COC(=O)c1c(NC(=O)CC2Nc3cc(C)c(C)cc3NC2=O)sc(C)c1C` (stereo not given), the Potency was inconclusive: 0.0316 µM [cytotoxic, full curve, poor fit]. With `CCOC(=O)c1cc(-c2ccc(F)cc2)n(CCC(=O)NCCc2ccc(C)cc2)c1C` the Potency was “inactive”. For `CN(C(=O)c1cc2c(s1)-c1ccc(Cl)cc1SC2)c1cccc(C(F)(F)F)c1`, the Potency was inconclusive: 0.0063 µM [cytotoxic, full curve, poor fit]. For `Cc1ccc(CNCc2c(C(=O)O)n(Cc3ccc(C)cc3)c3cc(C)ccc23)cc1`, the Potency was inconclusive: 22.4 µM [cytotoxic, single point]. For `O=C(C1CCC(Cn2c(=O)c3sccc3n(Cc3ccccc3F)c2=O)CC1)N1CCCCC1` (stereo not given), the Potency was inconclusive: 3.98 µM [cytotoxic, single point]. For `O=C(Nc1ccc(Cl)cc1)N1CCN(c2ccc3nnc(-c4ccccc4)n3n2)CC1`, the Potency was “inactive”. With `Cc1ccc(C(=O)Nc2ccccc2C(=O)NC(C(=O)O)C(C)C)cc1` (stereo not given) the Potency was inconclusive: 10 µM [cytotoxic, partial curve]. In the case of `O=S(=O)(NCC(Nc1ccc(Cl)cc1)c1ccccc1)c1ccccc1` (stereo not given), the Potency is reported as inconclusive: 25.1 µM [cytotoxic, single point]. In the case of `C=CCNC(=O)c1nc2ccccc2s1`, the Potency is reported as inconclusive: 31.6 µM [cytotoxic, single point]. For `COc1ccc(-c2cn3nc(SCC(=O)Nc4ccc(C)c(Cl)c4)ccc3n2)cc1`, the Potency was inconclusive: 1 µM [cytotoxic, partial curve, poor fit]. With `COc1ccc(NC(=O)c2cnc[nH]2)cc1` the Potency was active: 7.94 µM. For `N#Cc1cccc(NC(=O)c2cc3c(s2)-c2ccc(Cl)cc2SC3)c1`, the Potency was inconclusive: 15.8 µM [cytotoxic, single point]. With `Cc1cc(NC(=O)CCNS(=O)(=O)c2ccc3c(c2)oc(=O)n3C)ccc1Br` the Potency was “inactive”. With `CCc1ccccc1Nc1nn2c(=O)c3ccc(C(=O)NCCc4ccccc4)cc3nc2s1` the Potency was inconclusive: 3.16 µM [cytotoxic, partial curve]. In the case of `CC(=O)c1ccc(NC(=O)c2cccc(NC(=O)N3CCSc4ncccc43)c2)cc1`, the Potency is reported as inconclusive: 17.8 µM [cytotoxic, partial curve, poor fit]. In the case of `Cc1nc(-c2ccc(F)cc2)sc1CCNC(=O)c1ccccc1`, the Potency is reported as “inactive”. In the case of `Cc1ccc(Nc2cc(C(=O)NC3CCCC3)c3ccccc3n2)cc1C`, the Potency is reported as “inactive”. With `Cc1cccc(CNC(=O)c2ccc(-c3nc(CS(=O)(=O)c4ccccc4)c(C)o3)cc2)c1` the Potency was “inactive”. For `COc1cccc2cc(-c3nnc(Nc4ccccc4C)s3)c(=O)oc12`, the Potency was “inactive”. With `Cc1cccc(NC(=O)CSc2nnc(-c3cccs3)o2)c1` the activity, negative = cell killing was inconclusive: -30.9% [cytotoxic]. With `COc1cccc(CNC(=O)Cn2c(=O)c3cccn3c3ccc(F)cc32)c1OC` the Potency was “inactive”. For `Cc1cc(=O)[nH]c2nnc(SCC(=O)Nc3cc(C(F)(F)F)ccc3Cl)n12`, the Potency was inconclusive: 1.58 µM [cytotoxic, partial curve, poor fit]. For `O=C(Nc1cc(C(F)(F)F)ccc1Cl)c1cc(S(=O)(=O)NCc2ccccc2)ccc1F`, the Potency was “inactive”. In the case of `CCOC(=O)c1cccc(NC(=O)Cn2c(=O)nc(-c3ccccc3)c3ccccc32)c1`, the Potency is reported as inconclusive: 10 µM [cytotoxic, partial curve]. With `CCc1cc2c(cc3c(=O)n(CCCC(=O)NCc4ccccc4Cl)nc(CC)n32)s1` the Potency was inconclusive: 0.251 µM [cytotoxic, full curve, poor fit]. In the case of `Cc1ccc(OCC(=O)Nc2ccc3nc(SCc4ccccc4)sc3c2)cc1`, the Potency is reported as “inactive”. With `CC(=O)c1cccc(NC(=O)c2cnn(-c3cccc(C)c3)c2-n2cccc2)c1` the Potency was inconclusive: 0.398 µM [cytotoxic, full curve]. For `CSc1oc(-c2ccc(F)cc2)nc1S(=O)(=O)c1ccccc1`, the Potency was “inactive”. With `Cc1ccc2[nH]cc(C(c3ccccc3)c3cccs3)c2c1` (stereo not given) the Potency was inconclusive: 20 µM [cytotoxic, single point]. With `CN(C)c1ccc(N=Nc2ccccc2C(=O)OCC(=O)N(C)c2ccccc2)cc1` the Potency was inconclusive: 14.1 µM [cytotoxic, single point]. With `COc1ccc(N2CCN(CC(O)COc3ccccc3C(C)(C)C)CC2)cc1` (stereo not given) the Potency was inconclusive: 31.6 µM [cytotoxic, single point].

— PubChem BioAssay AID904 (National Center for Advancing Translational Sciences (NCATS), 2007)
Potency is read from the fitted curve at half-maximal effect; tags tell the direction and shape of the fitted curve.
